# From the supplement of paper PMC8728848
# The list shows a part of the results.
# B1: Epa12 (Candida glabrata) (protein)
# chain: MGSSHHHHHHSSGLVPRGSHMLEPDNSLQIFDSFLSNPSKYPLGCSPKITNPKKGLSMELYSYPYRKKGSHPCWDPAYLDPNFPRVGYKKNKLIARVDGVSGDINFNFHPKRQCTPIADYLPPNFNYNEPITTTNFTMLLYGYFKPKVTGLHTFDISADDLLFMNFGAGNAFDCCRRDSTADTFGNYVAWAIWGRRIVRNKLTVRLDKGIYYPLRLFFNNRDYYGQMRLTFKTEHGSERITDFSDYFFSVDDTSEGCPGLITYESECADVKSSTVLETDYITIQAEKE
# Experiments:
# Test in all cases: glycan array binding signal (z-score within array); higher = stronger binding
# Conditions in all cases: glycan notation: IUPAC condensed, linker removed
# [1] = target: Neu5Gc(a2-8)Neu5Gc(a2-3)Gal(b1-4)GlcNAc(b1-3)Gal(b1-4)GlcNAc
# How it was run: (§1)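 Glycan array data came from 3228 arrays in the Consortium for Functional Glycomics database, and only arrays with an available protein sequence were kept. Glycan names were put into IUPAC-condensed notation, and columns mapping to the same glycan were averaged. The binding signal is a within-array Z-score, averaged across arrays of one protein sequence run at different concentrations or buffers and across linkers. A negative Z-score can be read as non-binding.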
# [2] = target: Neu5Gc(a2-8)Neu5Gc(a2-6)Gal(b1-4)GlcNAc
# How it was run: as §1
# [3] = target: Neu5Gc(b2-6)Gal(b1-4)GlcNAc
# How it was run: as §1
binder,measurement,setting,value
B1,glycan array binding signal (z-score),[1],-0.326
same,glycan array binding signal (z-score),[2],-0.366
same,glycan array binding signal (z-score),[3],-0.224
